PubChem BioAssay AID504332 (National Center for Advancing Translational Sciences (NCATS), 2011)
“And” between values parts separate entries of the source, which are not always exact repeats. Equal entries are not always repeated. The whole screen tested about 350,000 compounds, of which about 31,000 (8.9%) were called active. The inconclusive results got no clear call from the source; some entries with a clear call stand among them for comparison. The call rests on the fitted dose curve; in most records, active means well fitted inhibition curve with a large enough effect; inconclusive means small, poorly fitted or top-dose-only effect; inactive means no such curve, though single readings can be large or run the other way. Potencies beside an inconclusive call are fits to weak or partial responses and may not hold up.
Further: nearly all actives have a fitted effect of over 75% in size.
On the % scale 0 is the no-effect control and ±100 the full control effect; potency means the concentration at half of the fitted maximal effect; tags describe the fitted curve by direction and shape.

Each molecule was assayed against Histone-lysine N-methyltransferase EHMT2 (Homo sapiens) (UniProt Q96KQ7) (assay: qHTS Assay for Inhibitors of Histone Lysine Methyltransferase G9a). Details: G9a H3K9 monomethylation, AlphaScreen, 2 h; activity, negative = inhibition: at 59 µM (top of the series) unless noted.
Sequence of UniProt Q96KQ7 (Q96KQ7 whole entry, looked up): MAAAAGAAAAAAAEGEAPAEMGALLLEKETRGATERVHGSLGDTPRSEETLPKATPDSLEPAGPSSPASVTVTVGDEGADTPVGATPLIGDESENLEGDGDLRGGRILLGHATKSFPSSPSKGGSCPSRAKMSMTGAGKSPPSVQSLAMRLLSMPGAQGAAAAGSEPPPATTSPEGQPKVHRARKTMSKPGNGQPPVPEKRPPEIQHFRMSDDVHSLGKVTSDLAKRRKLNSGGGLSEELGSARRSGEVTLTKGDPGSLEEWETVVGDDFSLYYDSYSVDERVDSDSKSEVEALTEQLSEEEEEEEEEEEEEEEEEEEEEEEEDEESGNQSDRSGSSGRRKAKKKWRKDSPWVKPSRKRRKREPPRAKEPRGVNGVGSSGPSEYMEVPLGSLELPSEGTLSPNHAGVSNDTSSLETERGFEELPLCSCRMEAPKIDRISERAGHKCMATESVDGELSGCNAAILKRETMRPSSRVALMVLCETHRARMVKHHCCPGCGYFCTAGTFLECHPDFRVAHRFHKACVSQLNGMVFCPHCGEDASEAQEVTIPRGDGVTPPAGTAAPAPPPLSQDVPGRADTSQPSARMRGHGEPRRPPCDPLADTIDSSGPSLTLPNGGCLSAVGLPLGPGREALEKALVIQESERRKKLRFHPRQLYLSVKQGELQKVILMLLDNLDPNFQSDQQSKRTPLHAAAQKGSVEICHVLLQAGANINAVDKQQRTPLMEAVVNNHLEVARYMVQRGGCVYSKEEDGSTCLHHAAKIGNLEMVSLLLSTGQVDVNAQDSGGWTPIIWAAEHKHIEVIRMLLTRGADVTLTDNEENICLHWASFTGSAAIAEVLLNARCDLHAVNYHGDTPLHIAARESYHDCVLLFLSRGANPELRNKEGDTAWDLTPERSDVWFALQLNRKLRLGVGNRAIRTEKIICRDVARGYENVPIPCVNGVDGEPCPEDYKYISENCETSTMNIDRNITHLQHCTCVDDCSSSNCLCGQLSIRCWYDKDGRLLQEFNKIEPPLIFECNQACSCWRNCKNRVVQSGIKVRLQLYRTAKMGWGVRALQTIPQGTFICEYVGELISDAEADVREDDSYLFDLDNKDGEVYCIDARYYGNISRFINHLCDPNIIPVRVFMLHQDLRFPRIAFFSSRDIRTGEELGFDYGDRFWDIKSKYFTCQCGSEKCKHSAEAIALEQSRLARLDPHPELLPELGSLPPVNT
Procedure, shortened: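 Step 1: enzyme (final 20 nM) with compound, 15 min RT. Step 2: substrate peptide 500 nM and SAM 20 uM, 2 h RT. Step 3: anti-H3K9me1 antibody and AlphaScreen beads, 10 min, then plate read.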
`COc1ccc(NC(=O)CN(C)CC(=O)NC2CCCCC2C)cc1` (configuration not stated) was tested, and the Potency was active: 28.2 µM.
With `Cc1ccc2c(c1)c(C)c(C)n2CC(O)Cn1nnc2ccccc21` (configuration not stated) the Potency was inconclusive: 15.8 µM [inhibitor, partial curve, poor fit].
With `O=C(Nc1ccc(Br)cc1)c1ccc(N2C(=O)C3CC=CCC3C2=O)cc1` (configuration not stated) the Potency was inconclusive: 5.62 µM [inhibitor, single point].
`COc1ccc(-c2ocnc2C(=O)Nc2ccc3c(c2)CCC3)cc1` was tested, and the “activity, negative = inhibition” value was inactive: -7.46%.
In the case of `COc1ccc(/C=C/C(=O)c2cc3cccc(OC)c3oc2=O)cc1`, the Potency is reported as inconclusive: 3.55 µM [inhibitor, full curve, poor fit].
For `Cc1ccc(S(=O)(=O)c2c(N)n(Cc3ccco3)c3nc4ccccc4nc23)cc1C`, the Potency was inconclusive: 3.16 µM [inhibitor, partial curve, poor fit].
For `c1coc(-c2nnc3sc(C4CCCCC4)nn23)c1`, the Potency was inconclusive: 3.55 µM [inhibitor, single point].
In the case of `O=C(CCC(=O)N(CC(=O)NC1CCCCC1)Cc1ccco1)Nc1nccs1`, the Potency is reported as inconclusive: 89.1 µM [inhibitor, partial curve, poor fit].
In the case of `CCOC(=O)c1cc(C#N)c(SCC(=O)c2cc(C#N)c(SC)nc2C)nc1C`, the Potency is reported as active: 44.7 µM.
With `CC1(C)CC(=O)C(C=NCCN2CCN(C(=O)c3ccc(Br)cc3)CC2)=C(O)C1` the Potency was inconclusive: 39.8 µM [inhibitor, single point].
For `COCCOC(=O)C1=C(C)N=c2s/c(=C\c3cccs3)c(=O)n2C1c1cccs1` (configuration not stated), the activity, negative = inhibition was inconclusive: -52.4% [inhibitor].
For `COc1ccc(OC)c(NC(=O)CC2SC(=Nc3ccccc3)N(CCc3ccccn3)C2=O)c1` (configuration not stated), the Potency was inconclusive: 25.1 µM [inhibitor, single point].
With `CCCCc1ncc(/C=C(\Cc2cccs2)C(=O)O)n1Cc1ccc(C(=O)O)cc1` the “activity, negative = inhibition” value was inactive: 13.2%.
With `COC(=O)c1scc(C#N)c1N/N=C(\C#N)S(=O)(=O)c1ccc(Cl)cc1` the Potency was active: 44.7 µM.
`Cc1nc(-c2ccc(C)c(S(=O)(=O)N3CCC(C(=O)NCc4ccc(F)cc4)CC3)c2)no1` was tested, and the “activity, negative = inhibition” value was inactive: 23.2%.
For `Cc1cc(C(=O)CCl)c(C)n1CCc1ccccc1`, the Potency was active: 50.1 µM.
In the case of `O=C(O)CCCN1C(=O)C2C3CC(C2C1=O)C1C(c2ccccc2)c2sc(=O)[nH]c2SC31` (configuration not stated), the Potency is reported as inconclusive: 1.26 µM [inhibitor, full curve, poor fit].
With `N[C@@H](Cc1ccc(O)c(O)c1)C(=O)O` the Potency was active: 7.94 µM and active: 20 µM.
With `C/C(N)=C(/C#N)C(=O)CSc1n[nH]c(-c2ccccc2Br)n1` the Potency was inconclusive: 39.8 µM [inhibitor, single point].
`CCc1ccc(NC(=O)Cn2c(=O)n(CCc3ccccc3)c(=O)c3sc4ccccc4c32)cc1` was tested, and the “activity, negative = inhibition” value was inactive: -1.28%.
With `Cc1ccc(C)c2[nH]c(=O)c(CN(CCN3CCCC3)C(=O)Nc3cccc(Cl)c3)cc12` the Potency was active: 28.2 µM.
For `CCCCCCC(=O)N(O)C1CC(=O)N(c2ccc(C)cc2)C1=O` (configuration not stated), the Potency was active: 1.26 µM.
For `N#Cc1cc(C(=O)c2cc(Cl)ccc2O)cn(-c2ccccc2)c1=O`, the “activity, negative = inhibition” value was inactive: 10.1%.
`Cc1snnc1C(=O)NC(=S)Nc1ccccc1` was tested, and the Potency was inconclusive: 44.7 µM [inhibitor, partial curve].
With `CCN(C(=O)c1ccco1)c1nnc(-c2ccc(OC)cc2)s1` the Potency was inconclusive: 17.8 µM [inhibitor, single point].
`Cc1ccc(C)c(CNC(=O)CN2C(=O)CSc3ccc(S(=O)(=O)N(C)C)cc32)c1` was tested, and the “activity, negative = inhibition” value was inactive: -5.57%.
`Cc1ccc(-n2cnc3c(sc4nc(N5CCOCC5)c5c(c43)CCCC5)c2=O)cc1` was tested, and the Potency was active: 50.1 µM.
`COc1ccc(OCC(=O)Nc2ccc3c(c2)nc(CCN2CCCC2)n3C)cc1` was tested, and the “activity, negative = inhibition” value was inactive: -7.72% [at 102 µM].
`Cc1cccn2cc(-c3cccc(S(=O)(=O)N4CC(C)OC(C)C4)c3)nc12` (configuration not stated) was tested, and the Potency was inconclusive: 79.4 µM [inhibitor, single point].
For `O=C(CCN1C(=O)c2ccccc2C1=O)NCCN1CCOCC1`, the Potency was inconclusive: 1.41 µM [inhibitor, single point].
In the case of `CCCNC(=O)CN1C(=O)NC(c2ccccc2)(c2ccccc2)C1=O`, the “activity, negative = inhibition” value is reported as inactive: 18.4% [at 102 µM].
For `Cc1cccc(NC(=S)N(CCCN2CCCC2)Cc2cccn2Cc2ccc(Cl)cc2)c1`, the Potency was active: 44.7 µM.
In the case of `O=C(CCC1CCCCC1)Nc1ccccc1-c1ccccc1`, the activity, negative = inhibition is reported as inconclusive: 50.1% [inhibitor] [at 102 µM].
With `CN(Cc1ccc(F)cc1)C(=O)c1cc(S(=O)(=O)N2CCCCC2)ccc1N1CCOCC1` the “activity, negative = inhibition” value was inactive: -27.3% [at 102 µM].
`CCn1c(=O)c2cc(C(=O)NCCc3ccc(Cl)cc3)sc2c2ccccc21` was tested, and the “activity, negative = inhibition” value was inactive: -24.9%.
In the case of `CCCOc1ccc(C(=O)N(CC(C)C)c2c(N)n(Cc3ccccc3)c(=O)[nH]c2=O)cc1`, the “activity, negative = inhibition” value is reported as inactive: -40.8% [at 102 µM].
In the case of `CCOc1ncccc1C(=O)N=C1SCCN1C(=O)c1cccnc1OCC`, the Potency is reported as inconclusive: 79.4 µM [inhibitor, single point].
`CCCCc1ccc(NC(=O)CSCc2cc(=O)[nH][nH]2)cc1` was tested, and the Potency was inconclusive: 1.58 µM [inhibitor, single point].
With `Cc1ccc(C)c(NS(=O)(=O)c2ccc3oc(=O)c4ncn(C)c4c3c2)c1` the “activity, negative = inhibition” value was inactive: -15.4%.
In the case of `COc1ccc(C(=O)OCC(=O)NCc2ccco2)cc1S(=O)(=O)N1CCN(c2cccc(Cl)c2)CC1`, the Potency is reported as inconclusive: 17.8 µM [inhibitor, partial curve, poor fit].
In the case of `O=C(NCc1ccncc1)c1cccc(NS(=O)(=O)c2ccc(F)c(F)c2)c1`, the “activity, negative = inhibition” value is reported as inactive: -0.45%.
With `COCc1cc(C)nc2sc(C(=O)NC3CCCCC3)c(N)c12` the activity, negative = inhibition was inconclusive: -80.6% [inhibitor].
For `COc1ccc(OC)c(S(=O)(=O)NC2CCN(Cc3ccccc3)CC2)c1`, the activity, negative = inhibition was inactive: 1.8% [at 12.7 µM].
With `COc1ccccc1-c1nnc(SCC(=O)Nc2nc(-c3ccccc3)cs2)n1C` the Potency was inconclusive: 14.1 µM [inhibitor, partial curve, poor fit].
For `COc1cc(C2c3c(oc4ccccc4c3=O)C(=O)N2Cc2ccc(C)cc2)ccc1O` (configuration not stated), the “activity, negative = inhibition” value was inactive: 3.67%.
For `O=C(NCC1CCCO1)C(c1cccs1)N(C(=O)c1ccc(-c2ccccc2)[nH]1)C1CCCC1` (configuration not stated), the Potency was inconclusive: 25.1 µM [inhibitor, single point].
With `Cc1cccc(N2CCN(C(=S)Nc3ccc4nc(N5CCN(C)CC5)cc(C)c4c3)CC2)c1C` the “activity, negative = inhibition” value was inactive: -4.98%.
In the case of `On1nnc2ccc3ccccc3c21`, the Potency is reported as inconclusive: 89.1 µM [inhibitor, single point].
With `CCCCNCCOCCOc1ccc(C)cc1[N+](=O)[O-]` the Potency was active: 17.8 µM.
For `O=C(O)c1ccccc1C(=O)Nc1ccc(Oc2cccc(C(F)(F)F)c2)nc1`, the Potency was inconclusive: 20 µM [inhibitor, partial curve, poor fit].
With `CC[n+]1c(C)sc2cc(OC)ccc21` the Potency was active: 25.1 µM.
With `COc1ccc(OCC(=O)NC(Cc2c[nH]c3ccccc23)C(=O)O)cc1` (configuration not stated) the “activity, negative = inhibition” value was inactive: -35%.
In the case of `COc1ccc(-c2nn(-c3ccccc3)cc2C(=O)OCC(=O)c2ccc(C)c([N+](=O)[O-])c2)cc1`, the Potency is reported as inconclusive: 0.355 µM [inhibitor, partial curve, poor fit].
In the case of `COc1cccc(/C=C2\SC(=S)N(CC3CCCO3)C2=O)c1` (configuration not stated), the Potency is reported as active: 28.2 µM.
With `Cc1cc(C)c(S(=O)(=O)N(C2=NCCS2)S(=O)(=O)c2c(C)cc(C)cc2C)c(C)c1` the Potency was inconclusive: 22.4 µM [inhibitor, single point].
With `C=CCc1ccccc1OCCn1ccnc1` the Potency was active: 8.91 µM.
With `Cn1c(=O)[nH]c(=O)c2c1nc(OC(=O)c1ccccc1)n2CC(O)COc1ccccc1` (configuration not stated) the Potency was inconclusive: 17.8 µM [inhibitor, partial curve, poor fit].
With `CN1CCN(CC(O)COC(c2ccc(Cl)cc2)c2ccc(Cl)cc2)CC1` (configuration not stated) the Potency was inconclusive: 89.1 µM [inhibitor, single point].
In the case of `CCS(=O)(=O)Nc1c(C(=O)O)[nH]c2ccccc12`, the Potency is reported as active: 50.1 µM.
With `Cc1cc(=O)c2cc(NC(=O)c3ccccc3Cl)ccc2[nH]1` the Potency was inconclusive: 100 µM [inhibitor, single point].
For `COC(Cc1nnc(SC)n1-c1ccc(Cl)cc1)OC`, the “activity, negative = inhibition” value was inactive: 14.4% [at 102 µM].
In the case of `Cc1ccc(OCC(=O)N(Cc2ccc(N(C)C)cc2)C2CCS(=O)(=O)C2)cc1` (configuration not stated), the Potency is reported as active: 39.8 µM.
`COc1ccc(C(=O)NC(=S)NC2CCCCC2)cc1` was tested, and the Potency was active: 39.8 µM.
For `COC(=O)c1ccc(Cn2c(O)c(N=O)c3ccccc32)o1`, the Potency was inconclusive: 89.1 µM [inhibitor, single point].
`O=C(Nc1ccc(N2CCOCC2)c(C(=O)O)c1)c1ccc(Br)cc1` was tested, and the “activity, negative = inhibition” value was inactive: -37.3%.
`Cc1ccccc1C1C(C#N)=C2NC(=O)c3c(sc4c3CCCCC4)N2C2=C1C(=O)CC(C)(C)C2` (configuration not stated) was tested, and the “activity, negative = inhibition” value was inactive: 21% [at 102 µM].
In the case of `Cc1cccc(CC2CC(=O)N(c3ncccn3)C2=O)c1` (configuration not stated), the Potency is reported as inconclusive: 31.6 µM [inhibitor, partial curve, poor fit].
`CCc1ccc(OCC(=O)N(C)C2CCS(=O)(=O)C2)cc1` (configuration not stated) was tested, and the Potency was inconclusive: 0.891 µM [inhibitor, full curve, poor fit].
With `O=C(Nc1ccc2c(c1)OCO2)c1cncc(Br)c1` the activity, negative = inhibition was inconclusive: -57.7% [inhibitor] [at 102 µM].
With `Cc1ccc(NC(=O)CC2S/C(=N/N=C3/NC(=O)CS3)NC2=O)cc1` (configuration not stated) the Potency was inconclusive: 1.58 µM [inhibitor, full curve, poor fit].
With `Cc1[nH]c2ccccc2c1C(=O)C(=O)N1CCN(c2ccccc2Cl)CC1` the activity, negative = inhibition was inactive: 25.8% [at 0.0925 µM].
With `N#CCCS(=O)(=O)c1nnnn1-c1ccccc1` the Potency was inconclusive: 50.1 µM [inhibitor, partial curve, poor fit].
